# Data reported in PubChem BioAssay AID624296 (National Center for Advancing Translational Sciences (NCATS), 2012).
# Out of some 350,000 compounds screened, about 9,900 (2.8%) were called active. Inconclusive results, whose numbers are uncertain, are shown with a selection of clear calls. Calls come from the whole dose curve; as a rule, active = well fitted activation curve with a large enough effect; inconclusive = small, poorly fitted or top-dose-only effect; inactive = no such curve, though single readings can be large or run the other way. Potencies of inconclusive entries are left out as doubtful fits.
# Assay: A quantitative high throughput screen for small molecules that induce DNA re-replication in MCF 10a normal breast cells. Note: nearly all actives have a fitted effect of over 50% in size.
# Conditions: MCF 10A DNA re-replication, Hoechst nuclear intensity, 48 h; series mostly up to 46.1 µM
# Potency is the fitted concentration of half-maximal effect; tags give direction and shape of the fitted curve.
row,SMILES,Potency
1,COC(=O)c1ccc(C(=O)NC2CC(C)(C)Cc3c2cnn3-c2ccc(F)cc2)nc1 (stereo unspecified),active: 20.6 µM
2,CCOc1ccc(NC(=O)CN(C)C(=O)c2cn(-c3ccc(F)cc3)nc2-c2cccc(OC)c2)cc1OCC,"inconclusive [activator, partial curve, poor fit]"
3,COc1cc(C2Oc3cc(C4Oc5cc(O)cc(O)c5C(=O)C4O)ccc3OC2CO)ccc1O (stereo unspecified),active: 25.9 µM
4,O=C(CCCc1nc2ccccc2s1)N1CCN(S(=O)(=O)c2cccs2)CC1,"inconclusive [activator, single point]"
5,O=C(O)CSc1ccnc2cc(Cl)ccc12,"inconclusive [activator, single point]"
6,CC1(C)Cc2c(sc(/N=C/N3CCCCC3)c2C#N)C(C)(C)N1,"inconclusive [activator, single point]"
7,COc1ccc(Br)cc1C(=O)Nc1ccc(NC(=O)c2ccco2)cc1,"inconclusive [activator, single point]"
8,O=C(Nc1cccnc1)Nc1cc(Cl)cc(Cl)c1,"inconclusive [activator, single point]"
9,N#CCCn1c(SCC(=O)N2CCN(S(=O)(=O)c3ccccc3)CC2)nc2ccccc21,"inconclusive [activator, single point]"
10,Cc1ccccc1NC(=O)c1ccccc1NC(=O)c1ccccc1F,inactive
11,FC(F)(F)c1ccccc1CN1CCC(Cc2ccccc2)CC1,"inconclusive [activator, partial curve]"
12,CC(C)(C)OC(=O)N/N=C/c1cc(N=Nc2ccccc2)ccc1O,"inconclusive [activator, single point]"
13,O=C(O)c1ccc(CN2CCOCC2)o1,"inconclusive [activator, single point]"
14,Cc1ccc(S(=O)(=O)n2nc(C)cc2C)cc1,"inconclusive [activator, single point]"
15,Nc1nc(N)c2[nH]cnc2n1,"inconclusive [activator, partial curve, poor fit]"
16,CC(C)NC(=O)Cn1c(SCC(=O)NC2CCCC2)nc2ccccc21,inactive
17,CC1CCCN(S(=O)(=O)c2cccc(C(=O)NCC3CCCO3)c2)C1 (stereo unspecified),inactive
18,Cc1ccc(NC(=O)CN(C)S(=O)(=O)c2cccc3cccnc23)cc1C,inactive
19,Cc1ccc(Sc2ccc(/C=N/O)cc2[N+](=O)[O-])cc1,active: 20.6 µM
20,CN1CCc2c(OCC(=O)N3CCC(Cc4ccccc4)CC3)cccc2C1=O,inactive
21,COc1cc(/C=N/N2CCN(C3c4ccccc4-c4ccccc43)CC2)ccc1O,"inconclusive [activator, single point]"

row,SMILES,Potency
1,Cc1cccc(CCN2C(N(C)C)=NC[C@@H]2Cc2ccccc2)c1,"inconclusive [activator, single point]"
2,CC1CCCCC1NCC(=O)Nc1ccccc1-c1ccccc1 (stereo unspecified),"inconclusive [activator, partial curve, poor fit]"
3,O=C(COC(=O)/C=C/c1ccc(F)cc1)NC1CC1,"inconclusive [activator, partial curve, poor fit]"
4,CCOC(=O)c1ccc(NC(=O)CCc2nc(-c3ccc(Cl)cc3)no2)cc1,"inconclusive [activator, full curve, poor fit]"
5,C/C=C(/C)C(=O)OC1CC(C)(C)C[C@H]2C3=CC[C@@H]4[C@@]5(C)CCC(O[C@@H]6O[C@@H](C(=O)O)[C@@H](O)C(O[C@@H]7OC[C@H](O)[C@@H](O)[C@@H]7O[C@@H]7OC(CO)C(O)[C@@H](O)[C@@H]7O)C6O[C@@H]6OC(CO)C(O)C(O)C6O)[C@@](C)(CO)[C@@H]5CC[C@]4(C)[C@]3(C)CC(O)[C@@]12CO (stereo partly specified),"inconclusive [activator, full curve, poor fit]"
6,CCOc1cc(CN2CCCC(CO)(Cc3ccc(F)cc3F)C2)ccc1OC (stereo unspecified),active: 3.66 µM
7,CCCCOCC1CN(c2ccccc2)C(=O)CS1 (stereo unspecified),"inconclusive [activator, partial curve, poor fit]"
8,CN1CC=C2C(C#N)=C(N)C(C#N)(C#N)C(Cc3ccccc3)C2C1 (stereo unspecified),inactive
9,Cc1nn(-c2ccccc2)c(Cl)c1C(=O)Nc1nnc(C2CCCC2)s1,"inconclusive [activator, single point]"
10,S=C(NCCc1ccccn1)Nc1cc(Cl)cc(Cl)c1,"inconclusive [activator, partial curve, poor fit]"
11,COc1ccc(S(=O)(=O)Nc2cccc3c2O[C@H](CN(C)C(=O)Nc2ccc(C(F)(F)F)cc2)[C@@H](C)CN([C@H](C)CO)C3=O)cc1,inactive
12,COc1ccc(-c2coc3cc(OC(C)=O)ccc3c2=S)cc1,"inconclusive [activator, single point]"
13,CCCCC(=O)NC(=S)Nc1cccc(NC(=O)c2ccccc2)c1,"inconclusive [activator, single point]"
14,COc1cc2c(ccc3cc(OC)c(OC)c(O)c32)cc1O,"inconclusive [activator, partial curve, poor fit]"
15,CNC(=S)N(Cc1ccc(OC)cc1)Cc1cc2cc(C)ccc2[nH]c1=O,"inconclusive [activator, partial curve, poor fit]"
16,COc1cc(OC)cc(C(=O)NCc2ccc3c(c2)cc(C)n3C)c1,"inconclusive [activator, single point]"
17,O=C(NCCN1C(=O)S/C(=C\c2cccc(Cl)c2Cl)C1=O)C1=COCCO1,active: 2.59 µM
18,NCCCCCCNS(=O)(=O)c1cccc2c(Cl)cccc12,inactive
19,Cc1ccc(S(=O)(=O)Cc2ccc(C(=O)N3CCN(c4cc(C)ccc4C)CC3)o2)cc1,"inconclusive [activator, single point]"
20,Cc1ccc(C)c(OCCCCN2CCCCC2)c1,"inconclusive [activator, single point]"
